The record followed here is US20260216242A1 (ALMAC DISCOVERY, published 2026).

Assay [1] has as its target T1, Human ALPP (leucine zipper) (human).
T1 construct: Whole entry: ALPP fused with a cysteine stabilised leucine zipper and His tag; also called hALPP
T1 chain: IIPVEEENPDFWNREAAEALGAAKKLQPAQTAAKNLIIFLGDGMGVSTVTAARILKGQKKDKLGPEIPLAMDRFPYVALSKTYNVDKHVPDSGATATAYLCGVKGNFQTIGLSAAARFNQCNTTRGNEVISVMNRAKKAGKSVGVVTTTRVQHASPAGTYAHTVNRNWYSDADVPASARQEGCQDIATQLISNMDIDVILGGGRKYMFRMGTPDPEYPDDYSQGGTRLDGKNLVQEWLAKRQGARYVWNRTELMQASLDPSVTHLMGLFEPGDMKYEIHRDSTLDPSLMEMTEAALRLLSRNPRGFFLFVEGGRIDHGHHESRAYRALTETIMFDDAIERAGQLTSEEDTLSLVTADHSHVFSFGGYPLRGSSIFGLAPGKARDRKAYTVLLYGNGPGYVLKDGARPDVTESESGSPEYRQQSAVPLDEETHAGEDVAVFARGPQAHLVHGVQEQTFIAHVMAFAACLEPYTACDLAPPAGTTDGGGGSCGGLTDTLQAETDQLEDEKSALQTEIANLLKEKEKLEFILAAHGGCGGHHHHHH
Put plainly: BLI, antigen immobilised, KD apparent. The procedure:
(§1) Binding kinetics were determined using the Biolayer Interferometry (BLI) Octet K2 or R4 system (Sartorius). […] For KD apparent measurements, the ALPP proteins were immobilised in sodium acetate pH5 buffer to AR2G sensors using amine coupling. To measure 1:1 interactions, AHC biosensors were used to immobilise Fc-fused proteins. All assays were conducted in HBS-EP with a plate temperature of 25° C. Ka (M⁻¹s⁻¹), Kd (s⁻¹) and KD (nM) values were determined using Octet Data Analysis High Throughput software (Sartorius) for Biolayer Interferometry.
A general note: Biolayer interferometry detects binding as a change in optical thickness at a sensor tip.

For assay [2], the target named is T2, ALPI His homodimer (human, UniProt P09923 20-503).
T2 construct: Whole entry with His tag; used in ELISA and BLI; also called hALPI
T2 sequence: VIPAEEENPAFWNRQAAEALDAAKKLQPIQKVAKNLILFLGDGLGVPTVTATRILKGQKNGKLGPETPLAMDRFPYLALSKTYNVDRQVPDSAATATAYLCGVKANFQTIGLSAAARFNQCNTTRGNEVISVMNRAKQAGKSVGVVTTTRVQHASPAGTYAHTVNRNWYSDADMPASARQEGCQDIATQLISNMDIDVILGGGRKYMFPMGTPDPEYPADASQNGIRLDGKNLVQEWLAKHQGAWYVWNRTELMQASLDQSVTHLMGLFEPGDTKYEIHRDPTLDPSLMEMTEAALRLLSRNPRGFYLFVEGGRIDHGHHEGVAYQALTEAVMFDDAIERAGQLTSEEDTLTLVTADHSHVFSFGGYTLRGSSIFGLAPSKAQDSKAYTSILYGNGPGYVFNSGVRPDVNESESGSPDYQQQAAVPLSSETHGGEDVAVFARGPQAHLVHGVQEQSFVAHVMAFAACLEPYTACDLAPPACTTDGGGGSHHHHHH
Put plainly: BLI, antigen immobilised; very low response. As for the experimental part: as §1
BLI data (Table 9) confirms the high affinity binding of VHH-hFc fusion proteins to ALPP and ALPPL2.

The target in assay [3] is T3, Mouse ALPPL2 (leucine zipper) (mouse).
T3 construct: Whole entry: cysteine-stabilised leucine zipper fusion; also called mALPPL2; NCBI #NP_031459
T3 chain: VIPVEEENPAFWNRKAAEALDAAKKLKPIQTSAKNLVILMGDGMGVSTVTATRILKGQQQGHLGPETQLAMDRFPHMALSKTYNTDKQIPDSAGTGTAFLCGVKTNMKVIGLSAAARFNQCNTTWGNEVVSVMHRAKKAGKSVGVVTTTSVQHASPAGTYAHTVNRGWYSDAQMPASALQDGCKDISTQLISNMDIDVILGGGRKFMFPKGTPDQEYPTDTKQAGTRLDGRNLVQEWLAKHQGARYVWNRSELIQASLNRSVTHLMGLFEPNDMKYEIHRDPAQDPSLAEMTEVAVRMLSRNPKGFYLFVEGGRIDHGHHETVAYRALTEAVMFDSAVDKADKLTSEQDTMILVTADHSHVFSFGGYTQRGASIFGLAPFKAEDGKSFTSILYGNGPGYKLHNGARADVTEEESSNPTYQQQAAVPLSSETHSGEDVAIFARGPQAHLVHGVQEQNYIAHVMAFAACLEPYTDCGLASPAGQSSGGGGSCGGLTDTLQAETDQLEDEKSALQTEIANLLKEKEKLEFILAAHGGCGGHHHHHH
Briefly: BLI, antigen immobilised. The procedure:
as §1
(§2) To assess cross-species reactivity of the ALPP/ALPPL2 targeting VHH-hFc fusions, BLI was conducted using mouse ALPPL2 (NCBI #NP_031459), rhesus monkey ALPP (NCBI #XP_028687061) and cynomolgus monkey ALPP (NCBI #XP_045223825). […] BLI was conducted as described above.

Assay [4] addresses T4, Rhesus monkey ALPP (leucine zipper) (rhesus monkey).
T4 construct: Whole entry: cysteine-stabilised leucine zipper fusion; also called rmALPP; NCBI #XP_028687061
T4 chain: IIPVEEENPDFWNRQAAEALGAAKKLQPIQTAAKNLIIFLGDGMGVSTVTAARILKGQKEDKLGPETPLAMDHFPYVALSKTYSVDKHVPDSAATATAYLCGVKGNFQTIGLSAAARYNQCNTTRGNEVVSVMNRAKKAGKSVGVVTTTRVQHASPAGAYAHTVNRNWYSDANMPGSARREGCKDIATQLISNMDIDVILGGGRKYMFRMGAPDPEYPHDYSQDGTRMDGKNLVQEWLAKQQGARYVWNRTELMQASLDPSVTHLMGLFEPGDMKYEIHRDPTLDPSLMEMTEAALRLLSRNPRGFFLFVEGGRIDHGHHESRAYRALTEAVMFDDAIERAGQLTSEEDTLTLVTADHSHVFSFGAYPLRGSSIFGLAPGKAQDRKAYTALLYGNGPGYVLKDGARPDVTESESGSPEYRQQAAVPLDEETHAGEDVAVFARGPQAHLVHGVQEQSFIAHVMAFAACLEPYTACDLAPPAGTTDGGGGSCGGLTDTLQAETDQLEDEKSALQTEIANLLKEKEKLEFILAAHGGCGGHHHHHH
Briefly: BLI, antigen immobilised, KD apparent. As for the experimental part: as §1, §2

For assay [5], the target named is T5, Human ALPL (leucine zipper) (human).
T5 construct: Whole entry: fused with a cysteine stabilised leucine zipper and His tag; also called hALPL
T5 chain: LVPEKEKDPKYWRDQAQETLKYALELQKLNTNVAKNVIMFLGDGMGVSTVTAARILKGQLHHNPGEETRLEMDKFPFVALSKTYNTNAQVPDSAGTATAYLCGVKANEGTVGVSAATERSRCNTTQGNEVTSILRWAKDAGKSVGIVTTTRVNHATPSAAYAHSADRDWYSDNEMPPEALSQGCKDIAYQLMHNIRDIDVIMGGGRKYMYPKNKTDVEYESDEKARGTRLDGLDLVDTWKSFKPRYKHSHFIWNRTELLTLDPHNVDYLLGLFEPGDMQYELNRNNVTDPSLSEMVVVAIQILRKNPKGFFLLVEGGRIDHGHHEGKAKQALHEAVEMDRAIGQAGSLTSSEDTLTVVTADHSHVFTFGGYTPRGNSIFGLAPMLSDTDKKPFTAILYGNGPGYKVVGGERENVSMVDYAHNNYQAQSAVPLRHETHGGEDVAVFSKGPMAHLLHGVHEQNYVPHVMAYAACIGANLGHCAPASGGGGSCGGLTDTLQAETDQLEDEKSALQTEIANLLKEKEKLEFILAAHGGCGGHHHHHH
Briefly: BLI, antigen immobilised. The procedure:
as §1

B1: F08-hFc (S239C) (Fc fusion)
chain: QVQLVESGGGSVQAGGSLRLSCAASGPSLSNYAMGWFRQAPGKEREFVAGISWGGGRTSYTDSVKGRFTISRDNAKNTVYLQMNNLKPEDTGVYYCAGRYGRGRNVEYEYDYWGQGTQVTVSSGGGGSGGGGSGGGGS[human IgG1 Fc with changes not spelt out]
notes: Built from parts; also called #338
The term koff denotes a measure of how fast the partners let go of each other. One may read the kon as a measure of how fast the partners come together. Regarding B1, the Kd in assay [1] is less than 0.01 nM; in assay [2], 10.8 nM; in assay [4] it was less than 0.01 nM. Further, the koff in assay [1] and in assay [4] was less than 1e-07 s⁻¹ in each case. In addition, the kon in assay [1] was determined as 192000 M⁻¹ s⁻¹; in assay [4], 297000 M⁻¹ s⁻¹. Further, the binding result in assay [3] and in assay [5] was “no binding” throughout.
